# Reference: PMC10668032
# This is one part of the list. At the low end of the ranking the order means little.
# Biological target: SIX1 homeodomain (reference allele) (UniProt Q15475)
# Test: universal protein binding microarray
# Details: Universal all-10-mer PBM (8x60K, AMADID 030236), 300 nM GST-tagged protein, Alexa Fluor 488 anti-GST; buffer, salt, pH and temperature not stated; high values mean tight binding; most listed sequences are background and not binding sites; double strand, one strand shown
row,Sequence,binding signal [E-score]
1,ATACACTC,0.225
2,AAACTCCG,-0.181
3,ACCAGTAA,0.0362
4,CAACCGGC,-0.0315
5,AGCTTCTC,0.0127
6,CCTGGGTA,0.0317
7,GGTCACCA,-0.205
8,GGCACCCC,-0.108
9,ATACCTGC,0.342
10,TGTCTCAA,0.0904
11,AGCACTTC,-0.312
12,CTGCGGGA,-0.14
13,AAAGCACT,0.0753
14,AAAAATCC,0.0961
15,CATGCGAC,0.0166
16,CCCCCTCC,-0.098
17,CATCCTGG,0.0578
18,AAGAATGT,-0.151
19,AGAGGGCT,-0.0641
20,TGAGCACA,-0.19
21,GGAGGTTA,-0.0541
22,ATGTCGTG,-0.0388
23,AGGCCCCA,-0.242
24,GCTGATGA,0.0845
25,CCGGTATA,0.343

row,Sequence,binding signal [E-score]
1,CGCATCGC,0.0135
2,ACACGCCA,0.0232
3,CCGAGCGG,0.0797
4,ACAAGATG,0.0934
5,AAGAAAGT,-0.29
6,CAAAGGGA,0.0166
7,AAGCGGCG,-0.245
8,GGAAACCA,-0.106
9,TAACGCGA,-0.094
10,ATGCAATG,-0.0906
11,TGAGGTAA,-0.129
12,GAGGGCCA,-0.283
13,ATCAGACA,0.152
14,CTCAATTA,-0.0399
15,CATGAGGG,-0.105
16,GCAAAACA,-0.134
17,ACGTTGTC,-0.221
18,CTGAAAAA,-0.27
19,CAGCATCC,-0.0888
20,CTACCCAG,0.0526
21,AGAAAAGA,-0.221
22,AACAACAC,0.103
23,CCAATCCA,0.0928
24,CCTTAGCG,-0.125
25,ACATGCAA,-0.154

row,Sequence,binding signal [E-score]
1,CGATTTAA,-0.173
2,CTTGGAAA,-0.141
3,CCCCGATC,0.346
4,AGAATTAC,-0.0355
5,CGCGGTTA,0.0518
6,ACGCCCCA,0.0741
7,ATCAGACG,0.15
8,CTAAGCCC,-0.151
9,AGGACAGC,-0.225
10,AAATCGAA,-0.226
11,AGGTTGCC,-0.124
12,AACCACGT,-0.134
13,CTGGCTTC,-0.122
14,ACAAGGCA,-0.204
15,CATGCATC,0.0608
16,ACCCTTAC,-0.0667
17,GCAGCAAA,-0.317
18,CAAATGCG,-0.0736
19,GTTGCATA,0.0748
20,AGGTCCTG,-0.137
21,ACCCATAA,0.0983
22,GCCGGTCA,-0.165
23,CCGCGTCG,-0.13
24,AACCCCGA,0.218
25,ATACGAAA,0.226

row,Sequence,binding signal [E-score]
1,AGGAGACC,-0.0106
2,CACCATCG,-0.106
3,GCAATCTA,0.0593
4,ACGTGAAC,-0.206
5,ATATAATG,0.126
6,ACTATTCC,-0.0871
7,ACTAAAAC,-0.107
8,ACCTATCA,0.336
9,CAGTGTAA,-0.117
10,AGCGCCCC,-0.192
11,GCGGTCCC,-0.204
12,GTCTCTCA,-0.129
13,CTCTTACA,-0.0377
14,AGTTTTAA,-0.0746
15,GCGCCTCA,-0.223
16,CTTTAGCA,-0.231
17,CCCGCTAG,-0.0925
18,TAAAGGTA,0.147
19,CGCGTTAC,-0.174
20,AGCCCTAC,-0.0572
21,GCATCTGA,-0.0879
22,ACTTAAAC,-0.116
23,GGAAGAAA,-0.324
24,ACGAGAGC,-0.063
25,TTCTTCAA,-0.0878

row,Sequence,binding signal [E-score]
1,ACCTCCGT,-0.026
2,CGACAGGA,-0.013
3,CCTCAATA,-0.0599
4,GACGACCC,-0.132
5,GTGCTCTA,-0.0497
6,AACTTCCT,-0.273
7,CGGCCAAA,-0.136
8,AACAGATT,-0.202
9,CTATGAGA,0.177
10,TACCACCA,0.11
11,AGTAGCCC,0.00485
12,GTAATGCA,-0.182
13,CCTTCATA,0.0288
14,ACAATCCA,0.0916
15,AGATCAAA,0.188
16,AACTACGG,-0.0499
17,CTGTATTA,0.18
18,CAAGACTA,-0.16
19,GATAACTA,0.154
20,ACATGAAA,-0.14
21,ATTTAAGG,-0.224
22,ACAGTATC,0.402
23,AATCTCTC,-0.0404
24,TGATGAAA,-0.114
25,CTAGGTCC,-0.159

row,Sequence,binding signal [E-score]
1,GGTGACCA,-0.244
2,CATGTTAC,-0.133
3,ACCACAAA,-0.00173
4,AACGCTCC,-0.204
5,ACCATTAC,-0.0166
6,CTTGACCC,-0.178
7,CTCGACCA,-0.153
8,ACACCACC,0.293
9,CCTATGCA,0.073
10,ACGCAAAT,-0.12
11,AATCAAGG,0.0699
12,CCCAAGCC,0.0122
13,ACTTGGTC,-0.0583
14,CGCAACGA,0.0268
15,CTTGAACC,0.107
16,AGATAACG,0.191
17,TAAGTAGA,0.0777
18,CCCGCGCG,-0.209
19,TCCAAAAA,-0.139
20,GCGGTCCA,-0.155
21,ATACTGGG,0.225
22,CTTTTATC,-0.13
23,AAGGCCAT,-0.209
24,GGGAGGTA,0.136
25,TAACCGTA,0.0921

row,Sequence,binding signal [E-score]
1,AAGGCGAC,-0.138
2,GAAAGATC,0.169
3,ATGGCCAT,-0.166
4,ATTTAGAG,-0.127
5,CTGCGGCA,-0.281
6,GTATTCAA,0.248
7,GCAATTTA,0.00713
8,CCCCTCGA,0.173
9,CCAGTGTA,0.106
10,AAAGTAGC,-0.13
11,ACGGTTAA,-0.187
12,GGAATGAC,-0.0861
13,CTTTCTGA,-0.129
14,CTGGAGGA,0.00889
15,AGGGGCCC,-0.19
16,CGGGAATC,0.0991
17,AGATGTTA,-0.0543
18,GGCGCCAC,-0.363
19,ATTCAGCA,-0.216
20,CATCGACG,-0.212
21,GCCTAATA,0.167
22,GCCTTTTA,-0.0588
